Data as given in PubChem BioAssay (Tox21).
Inconclusive results, whose numbers are uncertain, are shown with a selection of clear calls. Potencies of inconclusive entries are left out as doubtful fits. Active and inactive are the calls of the source. Calls come from the whole dose curve; as a rule, active = well fitted cell-killing curve with a large enough effect in the repeat runs (not every such curve was filed as active); inconclusive = weak or mixed curves, or effect the other way; inactive = no such curve, though single readings can be large or run the other way.

Test: qHTS assay to identify small molecule antagonists of the farnesoid-X-receptor (FXR) signaling pathway - cell viability counter screen (AID 743221); note: nearly all actives have a fitted effect of over 50% in size
Conditions: FXR-bla HEK293T viability, CellTiter-Glo luminescence, 16 h; activity change, negative = cytotoxicity: at 62.6 µM (top of the series)
Outline: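 In GeneBLAzer FXR-UAS-bla HEK 293T cells stimulated with 50 uM chenodeoxycholic acid (final), compounds acted for 16 h at 37 C. Viability was assessed afterwards by CellTiter-Glo luminescence.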
% is set by controls: 0 for no effect and ±100 for the full control effect; potency is the fitted concentration of half-maximal effect; tags give direction and shape of the fitted curve.

SMILES	Potency	activity change, negative = cytotoxicity
CC(C)C[P+](C)(CC(C)C)CC(C)C	inactive	–
O=C(O)c1cc(-c2ccccc2)nc2ccccc12	inconclusive [phenotype inactive, partial curve, poor fit]	–
O=S1(=O)CCCO1	inactive	–
CCCC(=O)OCCc1ccccc1	inconclusive [falling, full curve, poor fit]	–
CC(=O)Nc1cccc(N)c1	inconclusive [falling, partial curve, poor fit]	–
CC(C)(Cc1c[nH]c2ccccc12)NCC(O)COc1ccccc1C#N (stereo not drawn)	inconclusive [falling, partial curve, poor fit]	–
CCCCNS(=O)(=O)c1ccc(C)cc1	–	inconclusive: 30.3%
CS(=O)(=O)c1ccc([C@@H](O)[C@@H](CO)NC(=O)C(Cl)Cl)cc1	inactive	–
